For one test, the system named is HSkMC. The experiment in a line: cytotoxicity call (relative viability < 0.9). The following applies: 10 µM.
In another test the test system is HepG2. The experiment in a line: cytotoxicity call (relative viability < 0.9). The following applies: 10 µM.
For the next test, the system named is S. aureus RN4220. The test is described as follows: growth inhibition call (relative growth <= 0.2). The following applies: 50 µM.

Molecules are shown by their SMILES. The list shows a part of the results.

`CN(C)CC(=O)N[C@@H]1CC[C@H](CC(=O)O)O[C@@H]1CO`: the cytotoxicity call in the test with HSkMC and in the test with HepG2 was “inactive” each time. Besides, in the test on S. aureus RN4220, the growth inhibition call was “inactive”.

As for `C[C@@H]1CN([C@@H](C)CO)C(=O)c2cc(NS(C)(=O)=O)ccc2O[C@H]1CN(C)S(C)(=O)=O`, the cytotoxicity call in the test on HSkMC and in the test with HepG2 was “inactive” each time. In addition, in the test with S. aureus RN4220, the growth inhibition call was “inactive”.

For the compound `O=C1CN(C(=O)c2ccc3c(c2)OCO3)CCN1`, the cytotoxicity call with HSkMC and in the test on HepG2 was “inactive” each time. The growth inhibition call in the test on S. aureus RN4220 is “inactive”.

For the compound `CCCC(=O)Nc1ccc2c(c1)C(=O)N(C)[C@@H]1CC[C@@H](CC(=O)NCCN3CCCCC3)O[C@@H]1CO2`, the cytotoxicity call in the test on HSkMC and in the test with HepG2 was “inactive” throughout. In the test on S. aureus RN4220, the growth inhibition call was “inactive”.

In the case of `Cc1nc2cc(C)c(C)cc2s1`, the cytotoxicity call in the test on HSkMC and with HepG2 was “inactive” in each case. In the test on S. aureus RN4220, the growth inhibition call is “inactive”.

`C#CCN1[C@H](/C=C/C2CC2)[C@H](CCn2cc(-c3ccc(C(=O)NO)s3)nn2)OC(=O)[C@@H]1Cc1ccccc1`: the cytotoxicity call in the test on HSkMC and with HepG2 was “inactive” throughout. In the test on S. aureus RN4220, the growth inhibition call is “inactive”.

As to `COc1ccc(N(C(=O)CCl)[C@@H](C(=O)NCCc2ccccc2)c2ccc(Cl)s2)cc1Cl`, the cytotoxicity call in the test with HSkMC and with HepG2 was “active” each time. Further, the growth inhibition call in the test on S. aureus RN4220 is “inactive”.

With `C[C@@H]1CCCCO[C@@H](CN(C)C(=O)CCCN(C)C)[C@@H](C)CN([C@H](C)CO)C(=O)c2cc(NC(=O)Nc3ccc(C(F)(F)F)cc3)ccc2O1`, the cytotoxicity call with HSkMC and in the test with HepG2 was “inactive” throughout. In addition, in the test with S. aureus RN4220, the growth inhibition call is “inactive”.

`Cc1noc(C)c1NC(=O)Nc1ccc2c(c1)C(=O)N([C@H](C)CO)C[C@@H](C)[C@H](CN(C)S(C)(=O)=O)O2`: the cytotoxicity call in the test on HSkMC and in the test on HepG2 was “inactive” in each case. The growth inhibition call with S. aureus RN4220 is “inactive”.

As to `Cc1noc(C)c1NC(=O)N(C)C[C@H]1Oc2ccc(NC(=O)c3ccncc3)cc2C(=O)N([C@H](C)CO)C[C@H]1C`, the cytotoxicity call in the test with HSkMC and with HepG2 was “inactive” each time. In the test on S. aureus RN4220, the growth inhibition call is “inactive”.

Consider `COc1ccc(NC(=O)N2C[C@@H](O)COC[C@@H]3O[C@@H](CC(=O)NCc4ccccc4OC)CC[C@H]32)cc1`, for which the cytotoxicity call in the test on HSkMC and in the test with HepG2 was “inactive” each time. The growth inhibition call in the test with S. aureus RN4220 is “inactive”.

For `C[C@@H]1CCCCO[C@@H](CN(C)S(=O)(=O)c2cn(C)cn2)[C@@H](C)CN([C@H](C)CO)C(=O)c2cc(NC(=O)Nc3cccc4ccccc34)ccc2O1`, the cytotoxicity call in the test on HSkMC and with HepG2 was “inactive” throughout. For the same compound, the growth inhibition call in the test on S. aureus RN4220 was “inactive”.

As to `Cc1ccc(S(=O)(=O)Nc2ccc3c(c2)CC(=O)N([C@H](C)CO)C[C@H](C)[C@@H](CN(C)Cc2ccc(-c4ccccc4)cc2)O3)cc1`, the cytotoxicity call in the test with HSkMC is “inactive”. In the test with HepG2, the cytotoxicity call is “active”. Moreover, the growth inhibition call in the test on S. aureus RN4220 is “inactive”.

In the case of `Cc1noc(C)c1NC(=O)Nc1ccc2c(c1)C(=O)N([C@H](C)CO)C[C@H](C)[C@H](CN(C)Cc1ccc(C(=O)O)cc1)OCCCC[C@H](C)O2`, the cytotoxicity call in the test with HSkMC and in the test on HepG2 was “inactive” throughout. Moreover, the growth inhibition call in the test on S. aureus RN4220 is “inactive”.

With `C[C@H]1CN([C@@H](C)CO)C(=O)c2cccc(NS(C)(=O)=O)c2O[C@@H]1CN(C)C(=O)Nc1ccc(F)cc1`, the cytotoxicity call in the test on HSkMC and in the test with HepG2 was “inactive” each time. The growth inhibition call in the test with S. aureus RN4220 is “inactive”.

As for `CC(C)NC(=O)N1Cc2cc(C(=O)NC3Cc4ccccc4C3)nc(-c3cccc(-c4cccnc4)c3)c2[C@@H]1CCO`, in the test with HSkMC, the cytotoxicity call is “active”. Also, in the test on HepG2, the cytotoxicity call was “inactive”. Also, the growth inhibition call with S. aureus RN4220 was “inactive”.

As to `CNCc1nc(C(C)C)no1`, the cytotoxicity call in the test with HSkMC and in the test on HepG2 was “inactive” each time. Further, the growth inhibition call in the test with S. aureus RN4220 was “inactive”.

Regarding `CCOC(=O)c1cc(C(=O)OCC)n(C)n1`, the cytotoxicity call in the test with HSkMC and with HepG2 was “inactive” each time. The growth inhibition call in the test with S. aureus RN4220 was “inactive”.

As for `C[C@H]1CN([C@@H](C)CO)C(=O)c2cccc(NC(=O)Nc3ccc(F)cc3)c2O[C@@H]1CN(C)C(=O)Nc1ccc(C(F)(F)F)cc1`, the cytotoxicity call with HSkMC and in the test on HepG2 was “inactive” each time. In the test with S. aureus RN4220, the growth inhibition call was “inactive”.

`COc1ccc(S(=O)(=O)N2C[C@@H](O)COC[C@@H]3O[C@H](CC(=O)NCc4ccc(Cl)c(Cl)c4)CC[C@H]32)cc1`: the cytotoxicity call with HSkMC and with HepG2 was “inactive” throughout. For the same compound, the growth inhibition call in the test with S. aureus RN4220 is “inactive”.

Take `C[C@@H]1CN([C@H](C)CO)C(=O)c2cc(NS(=O)(=O)c3cccs3)ccc2O[C@H]1CN(C)C(=O)Nc1cccc2ccccc12`: the cytotoxicity call in the test with HSkMC and in the test on HepG2 was “inactive” each time. Further, in the test with S. aureus RN4220, the growth inhibition call is “inactive”.

Turning to `Cc1ccc(C(=O)C(C)CN2CCCCC2)cc1.Cl` (centres undefined), the cytotoxicity call with HSkMC and in the test on HepG2 was “inactive” in each case. For the same compound, the growth inhibition call with S. aureus RN4220 is “inactive”.

Turning to `C[C@H]1CN([C@@H](C)CO)C(=O)c2cc(NC(=O)c3ccncc3)ccc2O[C@@H]1CN(C)Cc1ccc(-c2ccccc2)cc1`, the cytotoxicity call with HSkMC and with HepG2 was “inactive” each time. Also, the growth inhibition call in the test with S. aureus RN4220 was “inactive”.

With `O=C(C[C@H]1C[C@@H]2c3cc(NC(=O)c4ccc5c(c4)OCO5)ccc3O[C@@H]2[C@H](CO)O1)NCCc1ccccc1`, the cytotoxicity call with HSkMC and in the test on HepG2 was “inactive” each time. For the same compound, the growth inhibition call with S. aureus RN4220 was “inactive”.

With `Cn1cnc(S(=O)(=O)N[C@@H]2C=C[C@H](CC(=O)NCC3CC3)O[C@H]2CO)c1`, the cytotoxicity call in the test on HSkMC and in the test with HepG2 was “inactive” throughout. Besides, the growth inhibition call in the test with S. aureus RN4220 was “inactive”.

On to `C[C@@H]1CN([C@H](C)CO)C(=O)Cc2cc(NS(=O)(=O)c3cn(C)cn3)ccc2O[C@@H]1CN(C)S(=O)(=O)c1cccs1`, for which the cytotoxicity call in the test with HSkMC and with HepG2 was “inactive” throughout. The growth inhibition call with S. aureus RN4220 was “inactive”.

For `COCC(=O)N(C)C[C@@H]1Oc2cc(C#Cc3cccnc3)ccc2S(=O)(=O)N([C@@H](C)CO)C[C@@H]1C`, the cytotoxicity call in the test on HSkMC and in the test with HepG2 was “inactive” throughout. For the same compound, the growth inhibition call in the test with S. aureus RN4220 was “inactive”.

On to `C[C@H]1CN([C@@H](C)CO)S(=O)(=O)c2ccc(-c3ccccc3F)cc2O[C@H]1CN(C)Cc1cncnc1`, for which the cytotoxicity call in the test on HSkMC (human skeletal muscle cells) and in the test on HepG2 was “inactive” throughout. The growth inhibition call with S. aureus RN4220 was “inactive”.

(Values after the antibiotic and cytotoxicity screens of Wong et al. (2023).)
